In PubChem BioAssay (NCI):
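Step 1: Grow cells in 96-well plates. Step 2: Expose to compound for 48 hours at 5 concentrations. Step 3: Interpolate endpoints linearly; if unreached, use highest concentration. At the GI50, growth is halved. At the TGI there is no net growth.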

Each molecule was assayed on NCI-H322M lung (assay: inhibition of tumour cell growth, NCI panel, 48 h).

SMILES | GI50 [µM] | TGI [µM]
O=C(Nc1cc(Cl)cc(Cl)c1)Nc1cc(Cl)cc(Cl)c1 | 2.82 | > 100
O=C(NO)c1ccc(Cn2ccc3c(NCc4ccccc4)ncnc32)cc1 | 6.16 | 48.3
CC1(c2ccccc2)NC(=O)N(CC(=O)Nc2ccc(C(=O)/C=C/c3ccccc3)cc2)C1=O (stereo not drawn) | 25.5 | > 100
C=C1CC[C@@H]2[C@]3(C)COC(c4cn[nH]c4-c4ccc(F)cc4)O[C@@H]3CC[C@@]2(C)[C@@H]1C/C=C1/C(=O)OCC1O (stereo partly drawn) | 16 | 31.9
